Laboratory results from the supplement of paper PMC4967469.
By IC50 is meant the dose at which the fit gives 50% viability; fits outside the tested doses are given as limits. AUC sums up the same curve from the lowest dose to the 256-fold higher top dose; it is 1 without any effect and falls as sensitivity rises. For some of these results: The top dose, if marked as inferred, comes from the curve model; the source does not state it. For some of these results: An entry number marks a drug with two screens in the source, which often give different values.

Tests used:
Test in all cases: Viability of human cancer cell lines after 72 h of drug (GDSC screen)
FTI-277 = compound: COC(=O)[C@H](CCSC)NC(=O)c1ccc(NC[C@@H](N)CS)cc1-c1ccccc1 [FTI-277]; conditions: top dose 1.024 µM; top dose inferred
Procedure: (§1)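 Human cancer cell lines in 384-well plates, medium with 10% serum, drug for 72 h over a 256-fold dose range (nine 2-fold or five 4-fold steps up to the top dose). Adherent lines were fixed and stained with the nucleic acid dye Syto60, suspension lines read with resazurin; signal relative to control wells, capped at 0 and 100%. One two-parameter sigmoid per drug and line, fitted in a mixed model over all curves with the slope shared within a line.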

CGP-60474 = compound: OCCCNc1cc(-c2ccnc(Nc3cccc(Cl)c3)n2)ccn1 [CGP-60474]; conditions: top dose 0.256 µM; top dose inferred
Procedure: as §1

AMG-706 = compound: CC1(C)CNc2cc(NC(=O)c3cccnc3NCc3ccncc3)ccc21 [AMG-706]; conditions: top dose 2 µM; top dose inferred
Procedure: as §1

JNK Inhibitor VIII = compound: CCOc1nc(NC(=O)Cc2cc(OC)ccc2OC)cc(N)c1C#N [JNK Inhibitor VIII]; conditions: top dose 10 µM; top dose inferred
Procedure: as §1

YM155 = compound: COCC[n+]1c2c(n(Cc3cnccn3)c1C)C(=O)c1ccccc1C2=O [YM155]; conditions: top dose 5.12 µM
Procedure: as §1

SB-715992 = compound: Cc1ccc(C(=O)N(CCCN)[C@@H](c2nc3cc(Cl)ccc3c(=O)n2Cc2ccccc2)C(C)C)cc1 [SB-715992]; conditions: top dose 0.128 µM; top dose inferred
Procedure: as §1

NSC-207895 = compound: CN1CCN(c2ccc([N+](=O)[O-])c3no[n+]([O-])c23)CC1 [NSC-207895]; conditions: top dose 20 µM; top dose inferred
Procedure: as §1

Belinostat = compound: O=C(/C=C/c1cccc(S(=O)(=O)Nc2ccccc2)c1)NO [Belinostat]; conditions: top dose 20 µM; top dose inferred
Procedure: as §1

Docetaxel = compound: CC(=O)O[C@@]12CO[C@@H]1C[C@H](O)[C@@]1(C)C(=O)[C@H](O)C3=C(C)[C@@H](OC(=O)[C@H](O)[C@@H](NC(=O)OC(C)(C)C)c4ccccc4)C[C@@](O)([C@@H](OC(=O)c4ccccc4)[C@H]21)C3(C)C [Docetaxel]; conditions: top dose 0.0125 µM
Procedure: as §1

JQ1 = compound: Cc1sc2c(c1C)C(c1ccc(Cl)cc1)=N[C@@H](CC(=O)OC(C)(C)C)c1nnc(C)n1-2 [JQ1]
Procedure: as §1

Cyclopamine = compound: CC1=C2C[C@H]3[C@@H](CC=C4C[C@@H](O)CC[C@@]43C)[C@@H]2CC[C@]12O[C@@H]1C[C@H](C)CN[C@H]1[C@H]2C [Cyclopamine]; conditions: top dose 16 µM; top dose inferred
Procedure: as §1

JNJ-26854165 = compound: c1ccc2c(CCNc3ccc(Nc4ccncc4)cc3)c[nH]c2c1 [JNJ-26854165]; conditions: top dose 10 µM
Procedure: as §1

OSI-906 = compound: C[C@]1(O)C[C@@H](c2nc(-c3ccc4ccc(-c5ccccc5)nc4c3)c3c(N)nccn32)C1 [OSI-906]; conditions: top dose 2.56 µM; top dose inferred
Procedure: as §1

[1] = top dose 2.56 µM, screen: GDSC drug entry 163
[2] = top dose 1 µM, screen: GDSC drug entry 1218, top dose inferred

Cell Line	AUC (FTI-277)	IC50 (FTI-277) [µM]	AUC (CGP-60474)	IC50 (CGP-60474) [µM]	AUC (AMG-706)	IC50 (AMG-706) [µM]	AUC (JNK Inhibitor VIII)	IC50 (JNK Inhibitor VIII) [µM]	AUC (YM155)	IC50 (YM155) [µM]	AUC (SB-715992)	IC50 (SB-715992) [µM]	AUC (NSC-207895)	IC50 (NSC-207895) [µM]	AUC (Belinostat)	IC50 (Belinostat) [µM]	AUC (Docetaxel)	IC50 (Docetaxel) [µM]	AUC (JQ1; [1])	IC50 (JQ1; [1]) [µM]	AUC (Cyclopamine)	IC50 (Cyclopamine) [µM]	AUC (JNJ-26854165)	IC50 (JNJ-26854165) [µM]	AUC (OSI-906)	IC50 (OSI-906) [µM]	AUC (JQ1; [2])	IC50 (JQ1; [2]) [µM]
MSTO-211H (mesothelioma, adherent)	0.98	> 1.02	0.967	> 0.256	0.991	> 2	0.987	> 10	0.453	0.241	0.987	> 0.128	0.984	> 20	0.613	2.47	0.889	0.0119	0.99	> 2.56	0.977	> 16	0.912	> 10	0.991	> 2.56	–	–
BL-41 (Burkitt lymphoma, suspension)	0.992	> 1.02	0.533	0.0192	0.992	> 2	0.994	> 10	0.01	< 0.02	0.628	0.0165	0.802	7.24	0.127	0.132	0.673	0.00208	0.578	0.248	0.911	13.1	0.887	6.61	0.992	> 2.56	0.983	> 1
KARPAS-299 (anaplastic large cell lymphoma, suspension)	0.992	> 1.02	0.582	0.0258	0.983	> 2	0.984	> 10	0.02	< 0.02	0.856	0.0766	0.927	> 20	0.212	0.216	0.905	0.0119	0.96	> 2.56	0.939	> 16	0.973	> 10	0.992	> 2.56	0.863	0.635
LU-165 (small cell lung carcinoma, suspension)	0.988	> 1.02	0.962	> 0.256	0.984	> 2	0.988	> 10	0.042	< 0.02	0.985	> 0.128	0.909	> 20	0.382	0.567	0.988	> 0.0125	0.952	> 2.56	0.987	> 16	0.972	> 10	0.937	> 2.56	0.947	> 1
MN-60 (B-cell leukaemia, suspension)	0.988	> 1.02	0.84	0.186	0.988	> 2	0.988	> 10	0.034	< 0.02	0.904	> 0.128	0.967	> 20	0.261	0.251	0.988	> 0.0125	0.694	0.576	0.988	> 16	0.983	> 10	0.944	> 2.56	0.97	> 1
ROS-50 (B-cell leukaemia, suspension)	0.98	> 1.02	0.742	0.0976	0.984	> 2	0.98	> 10	0.118	< 0.02	0.901	> 0.128	0.983	> 20	0.363	0.47	0.985	> 0.0125	0.738	0.941	0.98	> 16	0.956	> 10	0.905	> 2.56	0.983	> 1
NCI-H1836 (small cell lung carcinoma, suspension)	0.987	> 1.02	0.895	> 0.256	0.988	> 2	0.988	> 10	0.35	0.118	0.782	0.0594	0.987	> 20	0.356	0.477	0.961	> 0.0125	0.963	> 2.56	0.984	> 16	0.987	> 10	0.984	> 2.56	0.984	> 1
RH-1 (rhabdomyosarcoma, adherent)	0.992	> 1.02	0.87	0.175	0.989	> 2	0.991	> 10	0.017	< 0.02	0.575	0.0123	0.691	3.87	0.157	0.143	0.433	0.000528	0.991	> 2.56	0.992	> 16	0.833	5.02	0.744	0.692	0.991	> 1
GI-1 (glioma, adherent)	0.976	> 1.02	0.69	0.0532	0.94	> 2	0.972	> 10	0.022	< 0.02	0.662	0.022	0.853	14.7	0.266	0.279	0.458	0.000605	0.559	0.231	0.929	> 16	0.899	> 10	0.93	> 2.56	0.986	> 1
